Screen size: about 1,300 compounds; about 25 (2%) were called active. About 9% were inconclusive and are not listed. The call rests on the fitted dose curve; in most records, active means well fitted activation curve with a large enough effect; inconclusive means small, poorly fitted or top-dose-only effect; inactive means flat fitted curve, though single readings scatter. The list shows a part of the results.
These molecules were tested against Glucagon-like peptide 1 receptor (Homo sapiens) (UniProt P43220) (assay: qHTS of GLP-1 Receptor Agonists: Hit Validation). Details: HEK293 GLP-1R, cAMP-response luciferase, 4-6 h; series mostly up to 46.1 µM; activation: at the top concentration.
In short: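 HEK293 cells stably co-expressing a cAMP-responsive luciferase reporter and GLP-1R (hypersensitive receptor for weak agonists; wild-type line for confirmation) were plated 12 h at 37 °C, exposed to compound 4-6 h, then read by luminescence after 12 min detection reagent.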
Further: % of control where 0% means no effect.

Chain of UniProt P43220 (P43220 whole entry, looked up): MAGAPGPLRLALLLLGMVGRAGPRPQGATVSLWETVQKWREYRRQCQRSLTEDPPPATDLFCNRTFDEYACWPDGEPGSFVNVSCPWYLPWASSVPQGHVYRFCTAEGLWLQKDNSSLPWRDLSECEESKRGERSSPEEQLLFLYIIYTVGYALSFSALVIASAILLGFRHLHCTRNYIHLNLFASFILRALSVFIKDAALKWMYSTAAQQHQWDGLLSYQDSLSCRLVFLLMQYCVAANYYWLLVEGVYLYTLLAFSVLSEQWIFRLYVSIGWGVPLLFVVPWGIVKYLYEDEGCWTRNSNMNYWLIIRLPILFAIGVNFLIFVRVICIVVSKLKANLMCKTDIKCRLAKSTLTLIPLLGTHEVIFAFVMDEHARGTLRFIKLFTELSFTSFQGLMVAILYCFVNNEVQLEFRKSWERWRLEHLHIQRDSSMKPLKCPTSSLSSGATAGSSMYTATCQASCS

SMILES | activation
CCC(=O)Nc1sc2c(c1C#N)CCCCC2 | inactive: 0.438%
Fc1cnc(N2CCOCC2)nc1N1CCc2ccccc21 | inactive: 18.5%
COc1ccc(-c2ccc3ccccc3n2)cc1OC | inactive: 9.04%
CCOc1ncccc1C(=O)Nc1ccc2nc(C)sc2c1 | inactive: 6.12%
CCOc1ccc(-c2cn3ccccc3n2)cc1[N+](=O)[O-] | inactive: 2.72%
Cc1cc(Cl)c2oc(C(=O)NCCC3CCCCO3)c(C)c2c1 (centres undefined) | inactive: 12.6%
CC(C)(C)c1ccc(/C=C2/SC(N3CCCC3)=NC2=O)cc1 | inactive: 7.27%
C=CCn1c(SCc2ccc(Cl)cc2)nc2c1c(=O)[nH]c(=O)n2C | inactive: 10.8%
CCN(CC)c1nc(OC)nc(-n2nnc(C(C)=O)c2C)n1 | inactive: 0.606%
COc1ccc(-c2cc(C(=O)N3CCCC(C(F)(F)F)C3)c3ccccc3n2)cc1OC (centres undefined) | inactive: 7.08%
COc1ccc(/C=N/NC(=O)c2cccnc2)cc1CSc1ccccn1 | inactive: 0.398%
COc1ccc(C(CCN2CCCC2)c2c(OC)cc(OC)c3c(-c4ccccc4)cc(=O)oc23)cc1 (centres undefined) | inactive: 7.79%
Clc1cccc2sc(N3CCOCC3)nc12 | inactive: -0.197%
O=[N+]([O-])c1cnccc1NC1CCCCC1 | inactive: 3.34%
COc1ccc(-c2csc(-c3cccnc3)n2)cc1C | inactive: 5.51%
CCOc1cc2[nH]c(=S)n(CCCOC)c(=O)c2cc1OCC | inactive: 1.87%
Cc1ccc(C)c(NS(=O)(=O)c2ccc(-c3cnc(C4CC4)o3)cc2)c1 | inactive: 23.1%
O=C(COc1ccc(F)cc1Br)NCC1COc2ccccc2O1 (centres undefined) | inactive: 18.3%
CCOC(=O)c1c(C)n(-c2ccccc2)c2ccc(OCCN(C)C)cc12 | inactive: 1.98%
CC1(C)Cc2c(sc3c2C(=O)N(c2ccccc2)C2=NCCCN23)CO1 | inactive: 8.53%
Cc1nc(-c2ccc([N+](=O)[O-])cc2)c(-c2ccccc2)o1 | inactive: 17.5%
O=C1CN(c2nc(-c3cccnc3)nc3sc4c(c23)CCCC4)CCN1 | inactive: 26.3%
COc1ccc(-c2cc(C3CC3)nc(N)c2C#N)cc1 | inactive: 3.1%
COc1ccc(-c2cnc3c(NC(C)=O)cc(-c4cccc(C(=O)NCCO)c4)cn23)cc1OC | inactive: 27.5%
Cc1ccccc1Nc1c([N+](=O)[O-])ccc2nonc12 | inactive: 18.7%

SMILES | activation
COc1cccc(OCCNc2cc(N3CCOCC3)ccc2[N+](=O)[O-])c1 | inactive: 23%
N#Cc1nc(Cc2ccccc2)oc1NCc1ccccc1 | inactive: 2.87%
CCOC(=O)c1c(C)c(C(=O)OCC)n(C)c1C | inactive: 5.85%
OC(COc1c(Br)cc(Br)cc1Br)CN1CCOCC1 (centres undefined) | inactive: 1.84%
N#Cc1sc2nc3c(cc2c1N)CCCC3 | inactive: 21.3%
CC(C)Nc1nc(NC(C)C)nc(N(C)n2cnnc2)n1 | inactive: -0.81%
N#Cc1nc(-c2ccccc2F)oc1NCc1cccc2c1OCO2 | inactive: 9.1%
Cc1ccc(OCCOc2cccc3ccc(C)nc23)c([N+](=O)[O-])c1 | inactive: 1.31%
COc1cc2c(cc1OC)C(CC#N)=NC(C)(C)C2 | inactive: 7.97%
Cc1nc(N2CCOCC2)c2c(C)c(C(=O)Nc3ccccc3C(F)(F)F)sc2n1 | inactive: 5.01%
COc1ccc(CN(C)C(=O)c2ccc3ccccc3n2)cc1F | inactive: 22%
O=[N+]([O-])c1ccc(Cc2nnc(-c3ccccc3Cl)o2)cc1 | inactive: 2.53%
CCCS/C(N)=N/N=C/c1ccccc1O | inactive: 5.39%
CC(=O)NC(C)(c1ccccc1)c1nc(-c2cnc3ccccc3c2)cs1 (centres undefined) | inactive: 8.36%
CCn1c(=O)cc(OCC(=O)N2CCN(C(=O)c3ccco3)CC2)c2ccccc21 | inactive: 0.189%
CC(=O)c1cccc(Nc2nc(=O)c3cccnc3s2)c1 | inactive: 3.72%
Nc1ncnc(Oc2ccccc2F)c1[N+](=O)[O-] | inactive: -0.279%
COc1cc2c(cc1OC)CN(C(=O)c1ccc(N3CCCC3)c([N+](=O)[O-])c1)CC2 | inactive: 4.86%
COc1ccc(-c2ccc(=O)n(Cc3cc(=O)n4ccccc4n3)n2)cc1 | inactive: 8.87%
COC(=O)C(C)Sc1nc2c(c(=O)[nH]c(=O)n2C)n1CCC(C)C (centres undefined) | inactive: 29.1%
O=C(NCc1ccccn1)C1CC(c2ccccc2O)=NO1 (centres undefined) | inactive: 0.181%
COc1ccc(CSc2nnnn2-c2ccccc2)cc1 | inactive: 0.383%
Cc1nc(-c2cccs2)sc1C(=O)NN | inactive: -0.432%
CCOc1ccc2[nH]c(=O)c(CN(CCN3CCCC3)C(=S)Nc3ccccc3OCC)cc2c1 | inactive: 7.25%
O=S1(=O)N=C(Nc2ccc(N3CCOCC3)c(Cl)c2)c2ccccc21 | inactive: 2.79%

SMILES | activation
COC(=O)c1ccc(OCC2c3cc(OC)c(OC)cc3CCN2C(=O)Cc2ccc(OC)c(OC)c2)cc1 (centres undefined) | inactive: 12.8%
CCCn1cnc2c(SCc3ccccc3F)nc(N)nc21 | inactive: 18.3%
CCCc1nnc2c(N(C)S(=O)(=O)c3ccc(C)cc3)nc3ccccc3n12 | inactive: 10.2%
CCOC(=O)C1=C(C)NC(SCC(N)=O)=C(C#N)C1c1ccccc1 (centres undefined) | inactive: 3.93%
CCCNC(=O)c1ccc(COc2ccc(C(C)(C)C)cc2)o1 | inactive: 1.75%
CC(=O)N[C@@H](CS)C(=O)O | inactive: -0.63% [at 92.2 µM]
C=CCOC(=O)C1=C(C)Nc2nnnn2C1c1cccc(OC)c1OC (centres undefined) | inactive: -0.198%
CCOC(=O)c1c(NC(=O)CSc2nc3cc(Cl)ccc3c(=O)n2Cc2ccco2)sc(C(=O)N(C)C)c1C | inactive: 1.92%
COc1ccc(/C=C2\N=C3CCCCCN3C2=O)cc1OC | inactive: 7.49%
CCOc1cc(/C=N/O)ccc1OCc1ccc(F)cc1 | inactive: 4.36%
C=CCc1c(C)nc(SC)nc1Nc1ccc(C)cc1 | inactive: 3.46%
CC12CCC(C(=O)N(c3cccc(Cl)c3)C1=O)C2(C)C (centres undefined) | inactive: -0.253%
CCOC(=O)c1cc(NC(=O)c2cccnc2)cc(C(=O)OCC)c1 | inactive: 0.228%
COc1ccccc1NC(=O)COC(=O)/C=C/c1ccc(OC)c(OC)c1 | inactive: 8.77%
CSc1nnc2n(-c3ccccc3)c(=O)c3c4c(sc3n12)CCC4 | inactive: 3.74%
O=C(Cc1ccc2c(c1)CCCC2)Nc1ccccc1Cl | inactive: 3.74%
COc1ccc(Cl)cc1C(=O)OCC(=O)Nc1cccnc1Cl | inactive: 1.77%
Nc1cc(OC(=O)c2ccc(F)cc2)nn1S(=O)(=O)c1ccc(F)cc1 | inactive: -0.803%
COc1ccc(N/C=C/C(=O)c2cc(OC)c(OC)c(OC)c2)cc1 | inactive: 24.8%
CCOC(=O)c1oc2c(c1C)/C(=N/O)CCC2 | inactive: 14.1%
COc1ccccc1C(=O)Nc1cccc2cccnc12 | inactive: 9.08%
COc1cc(/C=N/NC(=O)c2cc(-c3c(C)nn(-c4ccccc4)c3C)n[nH]2)ccc1O | inactive: 13.1%
Nc1nc(N)c2ncc(C(=O)CCc3ccccc3)nc2n1 | inactive: -0.536%
CCOc1ccc(-c2nnc3n2N=C(c2ccc(OC)cc2)CS3)cc1 | inactive: 8.96%

From PubChem BioAssay AID743262 (National Center for Advancing Translational Sciences (NCATS), 2014)
